Whole data set: some 33,000 sequences, median “E-score (-0.5 to 0.5)” near -0.035, cut for the highest 2% near 0.34. The list shows a part of the results.
Molecular target: T1, Mot3 (UniProt P54785)
T1 sequence: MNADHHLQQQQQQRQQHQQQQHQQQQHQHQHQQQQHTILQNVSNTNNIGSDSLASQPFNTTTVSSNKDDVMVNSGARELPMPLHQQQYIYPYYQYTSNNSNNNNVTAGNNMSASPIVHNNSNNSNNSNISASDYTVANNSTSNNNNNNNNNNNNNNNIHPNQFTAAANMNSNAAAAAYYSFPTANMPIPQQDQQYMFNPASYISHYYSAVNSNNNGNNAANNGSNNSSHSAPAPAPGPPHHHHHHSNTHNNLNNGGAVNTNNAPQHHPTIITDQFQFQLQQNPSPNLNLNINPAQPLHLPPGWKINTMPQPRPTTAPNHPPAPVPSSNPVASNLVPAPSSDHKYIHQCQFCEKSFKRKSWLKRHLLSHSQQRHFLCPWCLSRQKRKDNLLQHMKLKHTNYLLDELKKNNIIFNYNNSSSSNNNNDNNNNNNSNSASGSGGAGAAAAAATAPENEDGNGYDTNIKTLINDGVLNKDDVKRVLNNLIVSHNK
Experiment: PBM E-score (8-mer binding enrichment) (E-score (-0.5 to 0.5)); higher = stronger / more preferred TF binding; most listed sequences are background and not binding sites
Details: protein concentration: 200 nM; construct: GST-full length
Procedure, shortened: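 Using PURExpress in vitro transcription/translation, GST-tagged yeast transcription factors were made in full-length or DNA-binding-domain form. These were applied at about 100-200 nM to double-stranded universal all-10-mer Agilent arrays, and bound protein was detected with fluorescent anti-GST. Scans were normalised with masliner before the Universal PBM Analysis Suite assigned E-scores to ungapped eight-base words pooled with their reverse complements.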

Sequence	PBM E-score
CTCTGAAA	-0.0147
ATTAAGCC	-0.194
AGCGACCA	-0.174
CGGACGTA	-0.112
AATTAGGT	0.0694
CCGCCGAC	-0.0974
GCAAATGC	0.0841
ATCGAATC	0.00195
ACTAGGAA	0.19
CGTTAGTC	-0.132
ATCTCCCG	-0.24
GTCTCAAA	-0.22
GATTCACA	0.107
AAAACCTG	-0.0219
ATAAGTGC	-0.0532
GAATCTTA	-0.0559
CAAAACCA	0.0975
ACAGCTTC	-0.0793
GTCTTACA	0.263
GTAGGGAA	0.0974
GTGGCTGA	-0.235
CAAACCTC	-0.25
CAGTTTAG	-0.0942
CGGGATGA	-0.225
CTCAAAAC	0.041

Sequence	PBM E-score
CGTCCTGA	-0.334
CCCTCGTC	-0.304
GACTCAAA	-0.182
CTCTAAGA	-0.117
CTATTATC	0.132
CCACTTAG	0.0229
CCTGCCCC	-0.241
AACGCTCA	0.0456
ATTCCGGC	0.0238
CAAACACC	0.0695
CAGCGTCC	-0.0903
GATGAGTA	0.0307
CAATCTGC	-0.147
CTGATGGC	-0.218
GTATTCTA	0.112
ATTGTTAG	0.211
AGGAAACA	0.391
AATTCGCG	0.228
AGGATAAA	0.104
ACCAACGC	-0.0129
CCTTCTGC	-0.193
TAGCTCGA	-0.166
AATTTGTA	0.186
GACGACCA	-0.161
ACAACATA	0.307

Sequence	PBM E-score
AATCAGCA	0.136
AGACTTGG	-0.245
GTAGTGCA	0.021
ACACGACC	0.29
CCATCACG	-0.0536
CAAATAGG	0.248
GGCATCAA	-0.00866
GAACTGTA	0.158
CTGTCAAC	0.0592
CTGCTCAC	-0.129
ACCTGCGA	0.0659
TCAAAAGA	-0.0592
GCAGAACC	0.0393
CAAATTCG	-0.192
AACTAACT	-0.143
ATAGTTCC	0.0344
GCCGGTAA	-0.0782
CATCTCGA	-0.141
CCGGCCTC	-0.0877
CCTTCCCG	-0.234
GAAGGCCC	0.122
CTGCCAAG	-0.0709
AGAAAAAG	-0.0708
GCGGGGAA	-0.0789
AGGGAAGC	-0.33

Sequence	PBM E-score
TCGAGAAA	0.0487
AGTCAGGA	0.0678
GGTTGTAA	0.269
TTCAAGAA	0.00671
CCGAATGC	-0.272
TCCTAGCA	-0.0797
CGGGCCGA	-0.23
CCAGTACG	-0.153
GCAGAAGA	-0.222
AGACATAA	0.121
CTACGTGC	0.108
ATTTTATG	-0.00782
CCGTATAG	-0.208
GTCTTTAA	0.0399
TAGGAATA	-0.0896
CTATTTAA	0.0572
ACTGCTCG	-0.123
ACATAGCA	0.269
AGTTAAGG	0.116
AGTCTGAG	-0.225
ATCGCGGG	-0.186
AACATGAC	0.359
ACCTGGCT	-0.161
CGTCGCGA	-0.1
GCAGTATA	-0.17

Sequence	PBM E-score
TCGGCTCA	-0.327
GAGTACGA	-0.0923
GCCATGGA	-0.144
AGTCCATC	-0.184
AATCCCAG	-0.0485
CTAGCGAC	-0.0534
GTCGCTTA	-0.0775
GTGCCCTA	0.265
TATCGGAA	0.0818
ACTGCTTC	-0.242
CTAACCAC	-0.0498
GATTGCCC	-0.0963
CGTTTGTC	-0.0445
GATGCACC	-0.207
AGGACTAG	0.00019
GTCCGTGA	-0.148
CGTCAAGC	-0.178
AGACTGAT	-0.085
GGTCGGTA	-0.102
CGGGGGCC	-0.124
CACTCTGC	0.00552
GTGGACCA	-0.133
CAAGAAGG	0.0725
AATGTTCA	0.184
ACAGCACG	0.056

Sequence	PBM E-score
CGCGTCGA	0.0669
ACCGAGCG	-0.194
ACGTACGT	0.23
ACTACTCA	0.0874
CTAAAACC	-0.00842
CGGCCTAG	-0.273
ATACAACG	0.136
ATCATTTC	-0.0571
AACACCAA	0.167
AGTACAAG	0.199
GAGTAGCA	-0.142
CAAGCCAA	0.12
CAACCTTA	0.0744
ATAGACTC	-0.217
CTTAATTA	0.0993
CAGACTAC	-0.135
GTGATGGA	-0.0675
TCCGTGCA	0.072
ACATACGA	0.315
AGTACTGG	-0.0501
ACATCGTA	0.154
ATTAAAGA	0.00619
TCGTTCCA	-0.0636
ATGTTTGC	0.176
CGTTCCAC	-0.148

Sequence	PBM E-score
ACACAGCG	0.318
AGGCCTGG	-0.2
TAGTCCAA	-0.0422
GGATGGAA	-0.292
AATGGCCT	-0.286
ACATCCGG	-0.207
GCTTGGGA	-0.218
CGGACGCC	-0.0906
ATCAGCAG	-0.0659
ACAGCGTC	0.112
AGGAGCCT	0.176
CACTGGAG	-0.209
CAGGAATA	0.128
GGTCCGTA	-0.332
CATTTTCA	0.0951
ACACTCCC	-0.108
TAAGTACA	0.2
CGGACCTA	-0.0377
GGAATAAA	-0.0165
GGGTCCAA	-0.213
ATCATAAA	0.00499
CCAAGTTA	0.209
TTCCGAAA	-0.102
ATTTAATC	0.0983
CTATTAGC	0.00709

Sequence	PBM E-score
ACGATTTG	0.0306
AAATGCCC	-0.192
ACCTTCCG	0.0672
AACTGGGT	-0.0369
AATGAGTA	0.184
ATAGCCAA	-0.164
GCGGTGCA	-0.279
ATTAAATG	0.166
CTGTACCC	-0.0603
GGTAAAGA	0.128
GGTTCGCA	-0.0826
CTGGCTTA	-0.0828
AATTTTAA	0.155
CGTCTGAA	-0.0897
GCTATAAC	-0.0423
AGGAAGGC	0.217
ATGTAACA	0.373
AAAGGAAA	0.442
CTCGGCGA	-0.184
GTGTTTCA	0.146
GGGCCACC	-0.338
GCCTGAAC	0.303
CCCCACCC	-0.267
CCCTACGC	-0.0662
CTTCAGAA	0.0786

Sequence	PBM E-score
CAATGTCC	-0.222
CCATATTC	-0.155
ATCAGCCC	-0.272
ACCTTCGG	-0.18
GTGCCAGA	-0.244
AAGGTTGC	0.0205
ATCGATGG	-0.0234
AGAGGCCT	-0.177
GGCTCGAC	-0.22
GCCTCACC	-0.0526
AGTGTAAA	0.28
TATCTCGA	-0.0872
CAGTATGC	-0.0987
CGCTTGGA	-0.121
GGTATGCA	-0.0141
CGGTATAC	-0.177
AGTTTTGA	0.0108
AAATCTAA	0.0406
GGGATTGA	-0.179

From the supplement of paper PMC3334620
